In PubChem BioAssay AID504845 (National Center for Advancing Translational Sciences (NCATS), 2011):
In all, about 390,000 compounds went through this assay and about 150 (0.038%) were called active. Inconclusive means that the source gave no clear call. Such entries were picked first, then a sample of the others. The call rests on the fitted dose curve; in most records, active means well fitted inhibition curve with a large enough effect; inconclusive means small, poorly fitted or top-dose-only effect; inactive means no such curve, though single readings can be large or run the other way. Potencies of inconclusive entries are doubtful fits and often do not repeat.

What follows are compounds tested against Regulator of G-protein signaling 4 (Homo sapiens) (UniProt P49798) (assay: Inhibitors of Regulator of G Protein Signaling (RGS) 4: qHTS). Settings: Transcreener GDP fluorescence polarization, RGS4-accelerated GTP hydrolysis; series mostly up to 114 µM.
Outline: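 MLSMR compounds (23 nl, pin-transferred) preincubated 10 min at room temperature with a 500nM (2x) first reagent, then RGS4 at 900nM (2x) plus Transcreener GDP mix added; fluorescence polarization (620/688 nm) read before and after 90 min at 30 °C.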
Further: nearly all actives have a fitted effect of over 75% in size.
Potency means the concentration at half of the fitted maximal effect; tags describe the fitted curve by direction and shape.

Chain of UniProt P49798 (P49798 whole entry, looked up): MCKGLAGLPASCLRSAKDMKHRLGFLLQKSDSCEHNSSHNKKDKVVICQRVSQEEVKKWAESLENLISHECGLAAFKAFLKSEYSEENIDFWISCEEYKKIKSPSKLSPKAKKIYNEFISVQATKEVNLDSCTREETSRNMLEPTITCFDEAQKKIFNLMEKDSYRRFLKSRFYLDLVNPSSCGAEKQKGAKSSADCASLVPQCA

Row | SMILES | Potency
1 | CC(C)C[C@@H](CNCC(=O)[C@H](CC(C)C)NC(=O)c1[nH]cnc1C(=O)N[C@@H](C)CN)NC(=O)c1nc[nH]c1C(=O)N[C@@H](CC(C)C)C(=O)O | inconclusive: 79.4 µM [inhibitor, partial curve, poor fit]
2 | C=CCNC(=S)NS(=O)(=O)c1cccs1 | inconclusive: 50.1 µM [inhibitor, partial curve, poor fit]
3 | CC1Sc2ccc(C(=O)NCc3ccccn3)cc2NC1=O (centres undefined) | inconclusive: 70.8 µM [inhibitor, partial curve, poor fit]
4 | N#Cc1ccc(-c2ccc(C3Nc4ccccc4C(=O)N3O)o2)cc1 (centres undefined) | inconclusive: 79.4 µM [inhibitor, partial curve, poor fit]
5 | CCCS(=O)(=O)c1c(S(=O)(=O)CCC)c2c(N)cccn2c1C(=O)c1ccc(F)cc1 | inconclusive: 79.4 µM [inhibitor, partial curve, poor fit]
6 | CCN(CC)S(=O)(=O)c1ccc2[nH]cc(C(=O)NCCCN3CCCCC3C)c(=O)c2c1 (centres undefined) | inactive
7 | CCOC(=O)c1c(NC(=O)COc2ccccc2Br)sc2c1CCCCC2 | inconclusive: 56.2 µM [inhibitor, partial curve, poor fit]
8 | CCOC(=O)C1CCCN(C(=O)c2cc(-c3ccco3)nc3ccccc23)C1 (centres undefined) | inconclusive: 44.7 µM [inhibitor, partial curve, poor fit]
9 | Cc1cc(NS(=O)(=O)c2ccc(NC(=O)CSc3nc4sc(C(=O)O)c(C)c4c(=O)[nH]3)cc2)no1 | inconclusive: 50.1 µM [inhibitor, partial curve, poor fit]
10 | S=C1NC(c2ccccc2)N2C(=S)NC(c3ccccc3)N12 (centres undefined) | inconclusive: 39.8 µM [inhibitor, full curve, poor fit]
11 | O=C(CSc1nnc(-c2cccc(F)c2)c(-c2cccc(F)c2)n1)NC1CCCCC1 | inactive
12 | Cc1ccc(C)c(S(=O)(=O)Nc2cc(SCC(=O)O)c(O)c3ccccc23)c1 | inconclusive: 22.4 µM [inhibitor, full curve, poor fit]
13 | CCCOc1ccc(C2C(C(=O)c3ccc(C)o3)=C(O)C(=O)N2Cc2ccco2)cc1 (centres undefined) | inconclusive: 50.1 µM [inhibitor, partial curve, poor fit]
14 | CCn1c(SCC(=O)c2cc(OC)ccc2OC)nnc1C(C)C | inconclusive: 17.8 µM [inhibitor, full curve, poor fit]
15 | COc1ccc(Sc2nc(-c3ccccc3)ncc2C(=O)O)cc1 | inconclusive: 17.8 µM [inhibitor, full curve, poor fit]
16 | CC(=O)Nc1ccc(NC(=O)c2ccc(-c3ccc([N+](=O)[O-])cc3)o2)cc1 | inconclusive: 79.4 µM [inhibitor, partial curve, poor fit]
17 | CCn1cc2nc(SCc3ccc(F)cc3)n(CCc3ccccc3)c(=O)c2n1 | inactive
18 | Cc1cccc(-n2cc[nH]c2=S)c1 | inconclusive: 50.1 µM [inhibitor, partial curve, poor fit]
19 | CCN(CCCNC(=O)c1ccc(Sc2ccc(Cl)cc2)c(NC(C)=O)c1)c1ccccc1 | inactive
20 | CN1CCN(C(=O)CC23CC4CC(CC(C4)C2)C3)CC1 | inactive
21 | CCc1ccccc1N(C)S(=O)(=O)c1ccc2c(c1)C(C)(C)C(=O)N2C | inactive
22 | COc1ccc(NC(=O)CCCn2cnc3ccccc3c2=O)cc1 | inconclusive: 50.1 µM [inhibitor, partial curve, poor fit]

Row | SMILES | Potency
23 | CC(=O)Nc1ccc(NC(=O)CSc2ccc(-c3ccco3)nn2)cc1 | inactive
24 | Nc1ccc(N2CCN(C(=O)c3cccs3)CC2)cc1 | inconclusive: 56.2 µM [inhibitor, partial curve, poor fit]
25 | CC(C)(C)c1cc(CCC(=O)NNC(=O)c2ccco2)cc(C(C)(C)C)c1O | inconclusive: 100 µM [inhibitor, single point]
26 | CNc1ccccc1C(C)(C)c1cc(C)[nH]n1 | inconclusive: 35.5 µM [inhibitor, partial curve, poor fit]
27 | CSc1cccc(NC(=O)CSc2ncccc2C(=O)Oc2cccc([N+](=O)[O-])c2)c1 | inconclusive: 79.4 µM [inhibitor, partial curve, poor fit]
28 | CCN1CCN(C(=O)C2c3cc(OC)c(OC)cc3C(=O)N3CCc4ccccc4C23)CC1 (centres undefined) | inconclusive: 89.1 µM [inhibitor, single point]
29 | CC1=C(C#N)C(=O)NC(=O)/C1=C/c1ccc(-c2ccc(S(N)(=O)=O)cc2)o1 | inconclusive: 79.4 µM [inhibitor, partial curve, poor fit]
30 | Cc1ccccc1NC(=O)C1CC(=O)N(c2ccc3c4c(cccc24)CC3)C1 (centres undefined) | inactive
31 | CSc1ccc(CCNC(=O)c2cc(C)nc3c2c(C)nn3-c2cccc(F)c2)cc1 | inactive
32 | Cc1cc(C)c2nc(N3C(=O)C(O)=C(C(=O)c4ccco4)C3c3ccco3)sc2c1 (centres undefined) | inconclusive: 50.1 µM [inhibitor, partial curve, poor fit]
33 | CCOC(=O)CSc1nc2c(c(=O)[nH]c(=O)n2C)n1C/C=C(/C)Cl | inconclusive: 17.8 µM [inhibitor, full curve, poor fit]
34 | S=C(NCc1ccccc1)NC1CCCc2ccccc21 (centres undefined) | inconclusive: 70.8 µM [inhibitor, partial curve, poor fit]
35 | CCOC(=O)c1ccc(NC(=O)CCc2ccc(CC)o2)cc1 | inconclusive: 50.1 µM [inhibitor, partial curve, poor fit]
36 | COCCCn1c(=N)c(C(=O)NCC2CCCO2)cc2c(=O)n3cccc(C)c3nc21 (centres undefined) | inactive
37 | CCOC(=O)c1c(-c2ccc(C)o2)csc1NC(=S)NC(=O)N(C)C | inconclusive: 79.4 µM [inhibitor, partial curve, poor fit]
38 | CCc1cc2c(cc3c(=O)n(CCCC(=O)NCc4cccc(Br)c4)ncn32)s1 | inactive
39 | CSC(=S)N/N=C(\C)c1ccc(Br)cc1 | inconclusive: 56.2 µM [inhibitor, partial curve, poor fit]
40 | CCc1cccc(NC(=O)Cn2c3[n+](c4ccc(C(F)(F)F)cc42)CCCCC3)c1 | inconclusive: 89.1 µM [inhibitor, single point]
41 | Cc1ccccc1OCCC(=O)N1CCN(S(=O)(=O)c2ccc(Cl)cc2)CC1 | inactive
42 | COc1cc2c(C#N)c(N3CCCC3)nc(N)c2c(N)n1 | inconclusive: 79.4 µM [inhibitor, partial curve, poor fit]
43 | Cc1ccc(OCc2nnc(SC(C)C(=O)O)n2Cc2ccccc2)cc1 (centres undefined) | inconclusive: 50.1 µM [inhibitor, partial curve, poor fit]
44 | Cc1ccccc1OCC(=O)Nc1ccc(S(=O)(=O)N(Cc2ccccc2)c2ccccc2)cc1 | inactive

Row | SMILES | Potency
45 | COc1cc(NC(=O)c2ccc(C)cc2C)ccc1NC(=O)c1cc2ccccc2o1 | inactive
46 | COc1ccc(C2Nc3ccccc3C(=O)N2NS(C)(=O)=O)c(OC)c1 (centres undefined) | inconclusive: 39.8 µM [inhibitor, partial curve, poor fit]
47 | O=C(O)C1CCN(C(=O)CSc2nc3ccccc3s2)CC1 | inconclusive: 79.4 µM [inhibitor, partial curve, poor fit]
48 | CCC1CCc2c(sc(NC(=O)c3ccco3)c2C(N)=O)C1 (centres undefined) | inconclusive: 100 µM [inhibitor, single point]
49 | CCc1nnc(NC(=O)CSc2nnc(-c3ccccc3O)n2-c2ccc(C)cc2C)s1 | inconclusive: 56.2 µM [inhibitor, partial curve, poor fit]
50 | N#CC1=C(SCc2ccccc2)NC2=C(C(=O)CCC2)C1c1ccc2c(c1)OCO2 (centres undefined) | inconclusive: 100 µM [inhibitor, partial curve, poor fit]
51 | CC(C)Sc1ccc(C(=O)Nc2ccc(F)cc2F)cn1 | inconclusive: 28.2 µM [inhibitor, full curve, poor fit]
52 | CC(=O)Nc1ccc(C2Nc3ccccc3C(=O)N2C2CCCCC2)cc1 (centres undefined) | inactive
53 | CCC(=O)N1c2ccccc2CC1C(=O)NCc1ccc(CC)cc1 (centres undefined) | inactive
54 | CC1(C)OC(=O)C(=Cc2ccc(-c3ccc(Cl)c(C(=O)O)c3)o2)C(=O)O1 | inconclusive: 79.4 µM [inhibitor, partial curve, poor fit]
55 | COc1ccccc1NS(=O)(=O)c1ccc(OC)c(OC)c1 | inconclusive: 89.1 µM [inhibitor, single point]
56 | CC(C)NCc1c(O)c(Br)cc2oc3c(c12)CCCC3 | inconclusive: 89.1 µM [inhibitor, single point]
57 | C=CCn1c(SCc2cccc(C#N)c2)nnc1-c1ccccc1O | inconclusive: 79.4 µM [inhibitor, single point]
58 | Cc1cccc(-c2n[nH]c(=S)n2/N=C/c2ccc(C)o2)c1 | inconclusive: 79.4 µM [inhibitor, partial curve, poor fit]
59 | CCC(N)(C(=O)O)c1ccc(C(=O)O)cc1 (centres undefined) | inconclusive: 6.7 µM [inhibitor, partial curve, poor fit]
60 | CCn1nnnc1SCC(=O)N(C1CCCCC1)C1CCCCC1 | inactive
61 | Cc1nn(C)cc1S(=O)(=O)N1CCN(Cc2ccc(F)cc2Cl)CC1 | inconclusive: 50.1 µM [inhibitor, partial curve, poor fit]
62 | O=C1c2cccc3c(O)ccc(c23)C(=O)N1Cc1ccco1 | inactive
63 | COc1cc(C)c(C(C)C)cc1S(=O)(=O)n1cnc(C)c1 | inactive
64 | Cc1cc(C([O-])=C(C(=S)Nc2ccc(F)cc2)[n+]2ccccc2)c(C)n1-c1ccc(F)cc1 | inconclusive: 79.4 µM [inhibitor, partial curve, poor fit]
